Target: B7H3 on B7H3-positive human tumor cells (M14, LAN-1, IMR-32, HeLa) (human), Q5ZPR3
Assay: cell-based or functional assay

B1: hu8H9 H3L3 IgG1 (antibody)
heavy: QVQLVQSGAEVVKPGASVKLSCKASGYTFTNYDINWVRQRPEQGLEWIGWIFPGDGSTQYNEKFKGKATLTTDTSTSTAYMELSSLRSEDTAVYFCARQTTATWFAYWGQGTLVTVSS[sequence of human IgG1 constant region omitted]
light: EIVMTQSPATLSVSPGERVSLSCRASQSISDYLHWYQQKSHESPRLLIKYASQSISGIPARFSGSGSGSEFTLTINSVEPEDVGVYYCQNGHSFPLTFGQGTKLELKRTVAAPSVFIFPPSDEQLKSGTASVVCLLNNFYPREAKVQWKVDNALQSGNSQESVTEQDSKDSTYSLSSTLTLSKADYEKHKVYACEVTHQGLSSPVTKSFNRGEC
B1 was tested, and the ADCC EC50 (µg/ml), 51Cr release, LAN-1 targets, human PBMC effectors was 0.7 µg/mL and the Fold change EC50 relative to ch8H9 (ADCC) was 2 fold.

— patent US20170240637A1
